Data published in patent US20230365662A1.
Certain results were filed several times, with different values. The other results are left out here. An entry can have further records. Values that stand side by side appear to be repeats (runs, samples, wells or individuals); one of them may be the mean.

Biological target: HRgpA-6H (Porphyromonas gingivalis) (UniProt P28784)
Test: ELISA on coated HRgpA-6H

Binder	OD450nm	Ratio OD(Variant)/OD(WT)
KB001 mouse Fab FASEBA VH S30D (Fab, V domains shown) VH: EVQLKQSGPGLVAPSQSLSITCTVSGFSLDIYSVHWVRQPPGKGLEWLGMIWGGGSSDYNSALKSRLSISKDNSKSQVFLKMNSLQTDDTAMYYCARNGNFYAMDYWGQGTSVTVSS VL: QIVLTQSPAIMSASLGERVTMTCTASSSVSSSFLHWYQQKPGSSPQLWIYSTSNLASGVPARFSGSGSGTSYSLTISSMEAEDAATYYCHQYHHSPYIYTFGGGTKLEIK	0.579, 0.563, 0.617, 0.528, 0.54, 0.552, 0.547, 0.448 [lines of one column]	1.15, 1.12, 1.22, 1.05, 1.07, 1.09, 1.08, 0.888 [lines of one column]
KB001 mouse Fab FASEBA VH S61E (Fab, V domains shown) VH: EVQLKQSGPGLVAPSQSLSITCTVSGFSLSIYSVHWVRQPPGKGLEWLGMIWGGGSSDYNEALKSRLSISKDNSKSQVFLKMNSLQTDDTAMYYCARNGNFYAMDYWGQGTSVTVSS VL: QIVLTQSPAIMSASLGERVTMTCTASSSVSSSFLHWYQQKPGSSPQLWIYSTSNLASGVPARFSGSGSGTSYSLTISSMEAEDAATYYCHQYHHSPYIYTFGGGTKLEIK	0.603, 0.567, 0.588, 0.547 [lines of one column]	1.22, 1.15, 1.19, 1.11 [lines of one column]
KB001 mouse Fab FASEBA VH S61D (Fab, V domains shown) VH: EVQLKQSGPGLVAPSQSLSITCTVSGFSLSIYSVHWVRQPPGKGLEWLGMIWGGGSSDYNDALKSRLSISKDNSKSQVFLKMNSLQTDDTAMYYCARNGNFYAMDYWGQGTSVTVSS VL: QIVLTQSPAIMSASLGERVTMTCTASSSVSSSFLHWYQQKPGSSPQLWIYSTSNLASGVPARFSGSGSGTSYSLTISSMEAEDAATYYCHQYHHSPYIYTFGGGTKLEIK	0.562, 0.547, 0.549, 0.472 [lines of one column]	
KB001 mouse Fab FASEBA VH I31Y (Fab, V domains shown) VH: EVQLKQSGPGLVAPSQSLSITCTVSGFSLSYYSVHWVRQPPGKGLEWLGMIWGGGSSDYNSALKSRLSISKDNSKSQVFLKMNSLQTDDTAMYYCARNGNFYAMDYWGQGTSVTVSS VL: QIVLTQSPAIMSASLGERVTMTCTASSSVSSSFLHWYQQKPGSSPQLWIYSTSNLASGVPARFSGSGSGTSYSLTISSMEAEDAATYYCHQYHHSPYIYTFGGGTKLEIK	0.449, 0.436, 0.462, 0.454, 0.466 [lines of one column]	0.89, 0.864, 0.916, 0.9, 0.924 [lines of one column]
KB001 mouse Fab FASEBA VH G53A (Fab, V domains shown) VH: EVQLKQSGPGLVAPSQSLSITCTVSGFSLSIYSVHWVRQPPGKGLEWLGMIWAGGSSDYNSALKSRLSISKDNSKSQVFLKMNSLQTDDTAMYYCARNGNFYAMDYWGQGTSVTVSS VL: QIVLTQSPAIMSASLGERVTMTCTASSSVSSSFLHWYQQKPGSSPQLWIYSTSNLASGVPARFSGSGSGTSYSLTISSMEAEDAATYYCHQYHHSPYIYTFGGGTKLEIK	0.664, 0.741, 0.67, 0.699 [lines of one column]	0.834, 0.93, 0.841, 0.878 [lines of one column]
KB001 mouse Fab FASEBA VH S56G (Fab, V domains shown) VH: EVQLKQSGPGLVAPSQSLSITCTVSGFSLSIYSVHWVRQPPGKGLEWLGMIWGGGGSDYNSALKSRLSISKDNSKSQVFLKMNSLQTDDTAMYYCARNGNFYAMDYWGQGTSVTVSS VL: QIVLTQSPAIMSASLGERVTMTCTASSSVSSSFLHWYQQKPGSSPQLWIYSTSNLASGVPARFSGSGSGTSYSLTISSMEAEDAATYYCHQYHHSPYIYTFGGGTKLEIK	0.794, 0.823, 0.861, 0.819 [lines of one column]	0.903, 0.936, 0.979, 0.931 [lines of one column]
KB001 mouse Fab FASEBA VH S56V (Fab, V domains shown) VH: EVQLKQSGPGLVAPSQSLSITCTVSGFSLSIYSVHWVRQPPGKGLEWLGMIWGGGVSDYNSALKSRLSISKDNSKSQVFLKMNSLQTDDTAMYYCARNGNFYAMDYWGQGTSVTVSS VL: QIVLTQSPAIMSASLGERVTMTCTASSSVSSSFLHWYQQKPGSSPQLWIYSTSNLASGVPARFSGSGSGTSYSLTISSMEAEDAATYYCHQYHHSPYIYTFGGGTKLEIK	0.761, 0.775, 0.777, 0.76 [lines of one column]	0.865, 0.881, 0.883, 0.864 [lines of one column]
KB001 mouse Fab FASEBA VH S56Q (Fab, V domains shown) VH: EVQLKQSGPGLVAPSQSLSITCTVSGFSLSIYSVHWVRQPPGKGLEWLGMIWGGGQSDYNSALKSRLSISKDNSKSQVFLKMNSLQTDDTAMYYCARNGNFYAMDYWGQGTSVTVSS VL: QIVLTQSPAIMSASLGERVTMTCTASSSVSSSFLHWYQQKPGSSPQLWIYSTSNLASGVPARFSGSGSGTSYSLTISSMEAEDAATYYCHQYHHSPYIYTFGGGTKLEIK	0.718, 0.764, 0.728, 0.775 [lines of one column]	0.816, 0.869, 0.828, 0.881 [lines of one column]
KB001 mouse Fab FASEBA VH S57E (Fab, V domains shown) VH: EVQLKQSGPGLVAPSQSLSITCTVSGFSLSIYSVHWVRQPPGKGLEWLGMIWGGGSEDYNSALKSRLSISKDNSKSQVFLKMNSLQTDDTAMYYCARNGNFYAMDYWGQGTSVTVSS VL: QIVLTQSPAIMSASLGERVTMTCTASSSVSSSFLHWYQQKPGSSPQLWIYSTSNLASGVPARFSGSGSGTSYSLTISSMEAEDAATYYCHQYHHSPYIYTFGGGTKLEIK	0.777, 0.781, 0.723, 0.769 [lines of one column]	0.883, 0.888, 0.822, 0.874 [lines of one column]
KB001 mouse Fab FASEBA VH S57P (Fab, V domains shown) VH: EVQLKQSGPGLVAPSQSLSITCTVSGFSLSIYSVHWVRQPPGKGLEWLGMIWGGGSPDYNSALKSRLSISKDNSKSQVFLKMNSLQTDDTAMYYCARNGNFYAMDYWGQGTSVTVSS VL: QIVLTQSPAIMSASLGERVTMTCTASSSVSSSFLHWYQQKPGSSPQLWIYSTSNLASGVPARFSGSGSGTSYSLTISSMEAEDAATYYCHQYHHSPYIYTFGGGTKLEIK	0.789, 0.801, 0.747, 0.724 [lines of one column]	0.897, 0.911, 0.849, 0.823 [lines of one column]
KB001 mouse Fab FASEBA VH Y59L (Fab, V domains shown) VH: EVQLKQSGPGLVAPSQSLSITCTVSGFSLSIYSVHWVRQPPGKGLEWLGMIWGGGSSDLNSALKSRLSISKDNSKSQVFLKMNSLQTDDTAMYYCARNGNFYAMDYWGQGTSVTVSS VL: QIVLTQSPAIMSASLGERVTMTCTASSSVSSSFLHWYQQKPGSSPQLWIYSTSNLASGVPARFSGSGSGTSYSLTISSMEAEDAATYYCHQYHHSPYIYTFGGGTKLEIK	0.758, 0.775, 0.752, 0.691 [lines of one column]	0.958, 0.98, 0.951, 0.874 [lines of one column]
KB001 mouse Fab FASEBA VH A62T (Fab, V domains shown) VH: EVQLKQSGPGLVAPSQSLSITCTVSGFSLSIYSVHWVRQPPGKGLEWLGMIWGGGSSDYNSTLKSRLSISKDNSKSQVFLKMNSLQTDDTAMYYCARNGNFYAMDYWGQGTSVTVSS VL: QIVLTQSPAIMSASLGERVTMTCTASSSVSSSFLHWYQQKPGSSPQLWIYSTSNLASGVPARFSGSGSGTSYSLTISSMEAEDAATYYCHQYHHSPYIYTFGGGTKLEIK	0.839, 0.812, 0.782, 0.827, 0.856 [lines of one column]	0.96, 0.929, 0.895, 0.946, 0.979 [lines of one column]

Biological target: HRgpA-6H (Porphyromonas gingivalis) (UniProt P28784)
Test: ELISA, FASEBA Fab on coated HRgpA-6H

Binder	OD450nm	Ratio OD(Variant)/OD(WT)
KB001 mouse Fab VL T24S (Fab, V domains shown) VH: EVQLKQSGPGLVAPSQSLSITCTVSGFSLSIYSVHWVRQPPGKGLEWLGMIWGGGSSDYNSALKSRLSISKDNSKSQVFLKMNSLQTDDTAMYYCARNGNFYAMDYWGQGTSVTVSS VL: QIVLTQSPAIMSASLGERVTMTCSASSSVSSSFLHWYQQKPGSSPQLWIYSTSNLASGVPARFSGSGSGTSYSLTISSMEAEDAATYYCHQYHHSPYIYTFGGGTKLEIK	0.822, 0.798, 0.812, 0.704 [lines of one column]	1.07, 1.04, 1.06, 0.915 [lines of one column]
KB001 mouse Fab VL S27T (Fab, V domains shown) VH: EVQLKQSGPGLVAPSQSLSITCTVSGFSLSIYSVHWVRQPPGKGLEWLGMIWGGGSSDYNSALKSRLSISKDNSKSQVFLKMNSLQTDDTAMYYCARNGNFYAMDYWGQGTSVTVSS VL: QIVLTQSPAIMSASLGERVTMTCTASTSVSSSFLHWYQQKPGSSPQLWIYSTSNLASGVPARFSGSGSGTSYSLTISSMEAEDAATYYCHQYHHSPYIYTFGGGTKLEIK	0.783, 0.702, 0.743, 0.737, 0.71 [lines of one column]	1.04, 0.935, 0.99, 0.982, 0.946 [lines of one column]
KB001 mouse Fab VL S27A (Fab, V domains shown) VH: EVQLKQSGPGLVAPSQSLSITCTVSGFSLSIYSVHWVRQPPGKGLEWLGMIWGGGSSDYNSALKSRLSISKDNSKSQVFLKMNSLQTDDTAMYYCARNGNFYAMDYWGQGTSVTVSS VL: QIVLTQSPAIMSASLGERVTMTCTASASVSSSFLHWYQQKPGSSPQLWIYSTSNLASGVPARFSGSGSGTSYSLTISSMEAEDAATYYCHQYHHSPYIYTFGGGTKLEIK	0.816, 0.808, 0.714, 0.722 [lines of one column]	1.09, 1.08, 0.951, 0.962 [lines of one column]
KB001 mouse Fab VL S31G (Fab, V domains shown) VH: EVQLKQSGPGLVAPSQSLSITCTVSGFSLSIYSVHWVRQPPGKGLEWLGMIWGGGSSDYNSALKSRLSISKDNSKSQVFLKMNSLQTDDTAMYYCARNGNFYAMDYWGQGTSVTVSS VL: QIVLTQSPAIMSASLGERVTMTCTASSSVSGSFLHWYQQKPGSSPQLWIYSTSNLASGVPARFSGSGSGTSYSLTISSMEAEDAATYYCHQYHHSPYIYTFGGGTKLEIK	0.864, 0.899, 0.824, 0.776 [lines of one column]	1.02, 1.06, 0.975, 0.918 [lines of one column]
KB001 mouse Fab VL S31N (Fab, V domains shown) VH: EVQLKQSGPGLVAPSQSLSITCTVSGFSLSIYSVHWVRQPPGKGLEWLGMIWGGGSSDYNSALKSRLSISKDNSKSQVFLKMNSLQTDDTAMYYCARNGNFYAMDYWGQGTSVTVSS VL: QIVLTQSPAIMSASLGERVTMTCTASSSVSNSFLHWYQQKPGSSPQLWIYSTSNLASGVPARFSGSGSGTSYSLTISSMEAEDAATYYCHQYHHSPYIYTFGGGTKLEIK	0.869, 0.791, 0.749, 0.789, 0.769 [lines of one column]	1.03, 0.936, 0.886, 0.934, 0.91 [lines of one column]
KB001 mouse Fab VL T52A (Fab, V domains shown) VH: EVQLKQSGPGLVAPSQSLSITCTVSGFSLSIYSVHWVRQPPGKGLEWLGMIWGGGSSDYNSALKSRLSISKDNSKSQVFLKMNSLQTDDTAMYYCARNGNFYAMDYWGQGTSVTVSS VL: QIVLTQSPAIMSASLGERVTMTCTASSSVSSSFLHWYQQKPGSSPQLWIYSASNLASGVPARFSGSGSGTSYSLTISSMEAEDAATYYCHQYHHSPYIYTFGGGTKLEIK	0.923, 0.848, 0.851, 0.782 [lines of one column]	
